Among all 310,000 compounds or so, about 2,200 (0.71%) showed an effect of 50% or more. The effect is printed as a negative number. The list shows a part of the results.
target: human ether-à-go-go-related gene (hERG) potassium channel (human, UniProt Q12809); assay: primary screen, population patch clamp on CHO cells stably expressing hERG
Sequence (Q12809 whole entry, looked up): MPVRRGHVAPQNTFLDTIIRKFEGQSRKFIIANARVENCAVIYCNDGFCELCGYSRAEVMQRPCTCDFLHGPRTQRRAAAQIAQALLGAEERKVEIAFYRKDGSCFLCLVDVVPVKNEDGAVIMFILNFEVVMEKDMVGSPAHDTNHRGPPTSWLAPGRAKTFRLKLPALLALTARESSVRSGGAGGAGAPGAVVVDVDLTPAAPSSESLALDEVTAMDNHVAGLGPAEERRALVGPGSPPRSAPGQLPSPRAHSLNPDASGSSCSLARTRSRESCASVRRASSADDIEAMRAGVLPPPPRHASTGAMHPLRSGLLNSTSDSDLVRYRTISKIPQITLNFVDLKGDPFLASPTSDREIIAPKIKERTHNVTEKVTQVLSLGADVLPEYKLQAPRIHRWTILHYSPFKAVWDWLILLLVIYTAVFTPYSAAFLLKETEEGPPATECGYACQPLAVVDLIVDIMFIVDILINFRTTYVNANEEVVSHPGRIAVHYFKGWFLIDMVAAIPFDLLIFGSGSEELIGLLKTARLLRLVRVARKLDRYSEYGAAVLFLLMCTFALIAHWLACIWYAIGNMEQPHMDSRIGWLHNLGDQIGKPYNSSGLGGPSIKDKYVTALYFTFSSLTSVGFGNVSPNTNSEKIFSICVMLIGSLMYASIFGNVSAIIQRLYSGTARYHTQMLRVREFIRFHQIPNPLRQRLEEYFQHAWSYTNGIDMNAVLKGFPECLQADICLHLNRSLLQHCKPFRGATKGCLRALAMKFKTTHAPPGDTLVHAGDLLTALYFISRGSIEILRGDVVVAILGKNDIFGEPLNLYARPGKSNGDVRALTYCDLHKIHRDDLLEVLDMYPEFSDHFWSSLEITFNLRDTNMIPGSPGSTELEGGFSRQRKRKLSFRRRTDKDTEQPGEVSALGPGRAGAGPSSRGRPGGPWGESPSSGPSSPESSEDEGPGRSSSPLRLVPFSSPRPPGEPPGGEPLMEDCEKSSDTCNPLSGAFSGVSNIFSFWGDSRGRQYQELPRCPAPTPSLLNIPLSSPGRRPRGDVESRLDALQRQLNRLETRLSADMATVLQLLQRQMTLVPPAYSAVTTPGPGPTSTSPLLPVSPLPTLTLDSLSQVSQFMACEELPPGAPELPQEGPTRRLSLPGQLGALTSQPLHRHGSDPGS

Row | SMILES | hERG current change (%, negative = inhibition) at 1uM [%]
1 | COc1ccc(OC)c(CN(CCN2CCOCC2)C(=O)Nc2ccccc2)c1 | 1.66
2 | CCOC(=O)c1c(-c2ccc(C)o2)csc1N | 3.32
3 | CC(Oc1ccc(Br)cc1)C(=O)NC1CCCCCC1 (stereo not drawn) | -2.05
4 | COc1ccc(CN2CCN(C(=O)c3cccs3)CC2)c(OC)c1OC | 10.3
5 | CCN1CCCC1CNC(=O)C(=O)NC (stereo not drawn) | 4.02
6 | COc1cc(OC)cc(-c2c(-c3cccs3)c3cc(-c4ccc(OC)c(F)c4)ccc3n2C)c1 | 16
7 | CC1=NN(C(N)=S)C(=O)C1N=Nc1ccccc1C (stereo not drawn) | 26.9
8 | CCOC(=O)C(O)(c1ccc(NC(=S)NC(=O)c2ccc(Cl)cc2Cl)c(C)c1)C(F)(F)F (stereo not drawn) | 23
9 | CCn1cc(C(=O)Nc2ccc(C)c([N+](=O)[O-])c2)cn1 | 11.3
10 | O=C(COC(=O)C(O)c1ccccc1)NC12CC3CC(CC(C3)C1)C2 (stereo not drawn) | -2.68
11 | Cc1cc(NC(=O)c2cnn3c(C(F)(F)F)cc(-c4ccc(Br)cc4)nc23)no1 | 9.51
12 | COc1ccccc1NC(=O)CSc1nnc(NC(=O)c2ccco2)s1 | 5.29
13 | COc1ccccc1C(=O)Nc1ccccc1C(=O)Nc1ccccc1 | 15.2
14 | O=C(O)COc1ccccc1/C=N/NC(=O)CSc1nc2ccccc2n1Cc1ccccc1 | 7.67
15 | Cc1cc(C)cc(COc2ccc3c(C)c(CC(=O)O)c(=O)oc3c2C)c1 | -3.52
16 | Cc1ccc(S(=O)(=O)Nc2ccc(-c3nnc(SCC#N)n3C)cc2)cc1 | 1.27
17 | CCOC(=O)c1ccc(NC(=O)N2CCN(c3ccccc3OC)CC2)cc1 | 4.65
18 | O=C(/C=C/c1ccco1)N(Cc1cccc(Cl)c1)C1CCS(=O)(=O)C1 (stereo not drawn) | 14.2
19 | COc1cc(CC(=O)O)ccc1O | -0.93
20 | CCNC(=O)CC1C(=O)N(CC)C(=S)N1NC(=O)c1ccccc1 (stereo not drawn) | 12.6
21 | COc1ccc(N2C(=O)/C(=C/c3ccc([N+](=O)[O-])cc3)C=C2c2ccccc2)cc1 | 0.667
22 | COc1ccc(NC(=O)CN(C)S(=O)(=O)c2cccc3nsnc23)cc1OC | 2.99

Row | SMILES | hERG current change (%, negative = inhibition) at 1uM [%]
23 | C=CCNC(=S)NNC(=O)c1csc(CC)c1 | 6.13
24 | CCN(CC)CCCN(C(C)=O)c1nc(-c2cc(OC)ccc2OC)cs1.Cl | -51
25 | COC(=O)c1c(-c2ccc(OC)c(OC)c2)csc1N | 17.5
26 | Cc1ccnc(NC(=O)c2ccc(NC(=O)CC3SC(N4CCCC4)=NC3=O)cc2)c1 (stereo not drawn) | 9.92
27 | CN(C)C=O.Oc1cccc2c(NC(=S)Nc3ccc(OC(F)F)cc3)cccc12 | 5.68
28 | COc1ccc(CNC2CCCCC2)cc1 | 5.35
29 | O=C(CSc1ccc(-c2ccccc2)nn1)N1CCCCC1 | 6.29
30 | O=C(CNC(=O)c1ccc(Cl)cc1Cl)NCC(=O)Nc1ccccc1N1CCOCC1 | -0.769
31 | CC(C)(C)C(=O)Nc1ccc(C(=O)Nc2cccc(Oc3ccc(C(=O)O)c(C(=O)O)c3)c2)cc1 | 15
32 | O=C(NN=C1CCCC1)c1ccc([N+](=O)[O-])cc1 | 3.89
33 | O=C(Cc1ccccc1)Nc1ccccc1C(=O)N1CCCCCC1 | 3.51
34 | COCCOC(=O)c1[nH]c2c(c1C)C(=O)CC(c1ccc(F)cc1)C2 (stereo not drawn) | 7.64
35 | COc1cc(/C=C2\CCc3ccccc3C2=O)cc(OC)c1OC | 4.71
36 | Cc1cc(C)nc(SCC(=O)Nc2ccc(S(=O)(=O)N3CCCCC3)cc2)n1 | -8
37 | COc1ccc([C@H]2CC(=O)C=C(c3ccc(F)nc3)C2)cc1OC | 5.73
38 | c1ccc(Cc2nn3c(-c4ccncc4)nnc3s2)cc1 | -9.42
39 | COc1ccc(OC)c(NC(=O)c2cccc(N3C(=O)C4C5CCC(C5)C4C3=O)c2)c1 (stereo not drawn) | 2.22
40 | CSc1nc(N)nc(SCC(=O)c2ccccc2)c1C#N | 2.61
41 | CCOC(=O)C1CN(S(=O)(=O)c2ccccc2)c2cc(S(=O)(=O)CC)ccc2O1 (stereo not drawn) | 7.58
42 | COc1ccc(/C=N/NC(=O)c2ccncc2)cc1CN1CCCc2ccccc21 | 1.61
43 | CC(/C=N/NC(=O)c1ccncc1)=C\c1ccccc1 | 15.3
44 | COc1cccc(CN(C)C(=O)c2ccc(COc3ccc(Cl)cc3)cc2)c1OC | 4.55

Row | SMILES | hERG current change (%, negative = inhibition) at 1uM [%]
45 | Cc1ccc(-c2nnc(Nc3ccc(C(=O)N(C)C)cc3)c3ccccc23)cc1S(=O)(=O)NC(C)(C)CO | 5.95
46 | CCOC(=O)N1CCC(c2cc(=O)n3[nH]c(C)c(-c4ccc(F)cc4)c3n2)CC1 | 12.5
47 | Cc1ccc(SC2CCN(C(=O)C3CCC(=O)N(C4CC4)C3)CC2)cc1 (stereo not drawn) | -11.1
48 | CCOCc1[nH]c(=S)[nH]c(=O)c1Cc1ccc(OCC)cc1 | 15.2
49 | O=C(Nc1ccc2c(c1)OCO2)Nc1ccc2c(c1)OCO2 | 13.8
50 | COc1cccc(-n2nc(-c3ccnn3-c3ccccc3)c(=O)n(C)c2=O)c1 | -8.21
51 | Cc1cc(C)c2c3c(oc2n1)C(=O)N(c1cccc(Cl)c1)CC(=O)N3 | 6.73
52 | CCc1cc(=O)oc2c(C)c(O)c(CN(C)C)cc12 | 6.29
53 | CCOC(=O)c1cnc2c(C)cc(Cl)cc2c1N1CCN(C)CC1.Cl | 5.36
54 | CS(=O)(=O)c1nc(S(=O)(=O)c2ccc(Cl)cc2)c(N2CCC(O)CC2)s1 | 12.4
55 | O=C(C1CC(=O)N(c2ccc(Cl)cc2)C1)N1CCC(c2nc3ccccc3[nH]2)CC1 (stereo not drawn) | -22.3
56 | CCN(CC)S(=O)(=O)c1ccc(Cl)c(C(=O)NCc2ccccc2Cl)c1 | -3.23
57 | CC(=O)Nc1cccc(NC(=O)C(=O)NCC(c2ccco2)N2CCc3ccccc3C2)c1 (stereo not drawn) | -1.3
58 | CC(C(=O)NCc1ccc2c(c1)OCO2)N1c2cccc3cccc(c23)S1(=O)=O (stereo not drawn) | 0.839
59 | CC1(C)Oc2ccc3ccc(=O)oc3c2CC1O (stereo not drawn) | 16.4
60 | c1ccc2c(c1)[nH]c1c(N3CCSCC3)ncnc12 | 8.19
61 | COCCCNC(=O)Cn1c(=O)n(CC(=O)NCCc2ccc(OC)c(OC)c2)c(=O)c2sccc21 | 7.16
62 | COc1ccc(-n2cc(C(=O)c3cc4ccccc4oc3=O)c(C(C)=O)n2)cc1 | 10.3
63 | Cc1ccc(N2CCN(CCCN3C(=O)C4CCCN4C3=O)CC2)cc1.Cl (stereo not drawn) | 4.77
64 | COc1cc2[nH]c(=S)n(Cc3cccs3)c(=O)c2cc1OC | 4.19
65 | OCC1(Cc2ccccc2)CCN(Cc2cc3ccccc3o2)CC1 | -0.287
66 | S=C(NC1CCCCC1)N1CCOCCOCCN(C(=S)NC2CCCCC2)CCOCCOCC1 | 6.91

Row | SMILES | hERG current change (%, negative = inhibition) at 1uM [%]
67 | O=C(CN1CCN(Cc2ccccc2)CC1)N1CCN(c2ccccc2)CC1 | 3.29
68 | O=C(c1ccc(Br)cc1)N1CCCC1 | 8.43
69 | CCC1(c2ccccc2)NC(=O)N(CC(=O)N(CC(=O)Nc2ccccc2C(F)(F)F)Cc2ccco2)C1=O (stereo not drawn) | 19
70 | CCCNC(=O)CNC(=S)N(Cc1cc(OC)c(OC)c(OC)c1)C1CCCC1 | -1.48
71 | COC(=O)C1=C(CS(=O)(=O)c2ccccc2)NC(=O)NC1c1ccc(OC)c(OC)c1 (stereo not drawn) | 18.9
72 | O=C(N/N=C/c1ccc(-c2ccccc2[N+](=O)[O-])o1)c1cncc(Br)c1 | 3.41
73 | CC1CCCCC1NS(=O)(=O)c1ccc(S(=O)(=O)N2CCCC2)cc1 (stereo not drawn) | 6.36
74 | COc1ccc(C(=O)c2c(-c3cccc(C)c3)oc3ccc(N4CCOCC4)cc23)cn1 | 17.6
75 | Cc1ccc(C)c(OCc2cc(C(=O)N3CC[C@@H]4CCCC[C@H]4C3)no2)c1 | 8.15
76 | O=C(/C=C/c1cccs1)NCc1cccnc1 | 11.2
77 | COCCn1c(SCc2cccnc2)nnc1-c1c[nH]c2ccccc12 | -7.38
78 | COc1ccccc1OCCCCCCN1CCOCC1.O=C(O)C(=O)O | 2.8
79 | O=C(NCCC1=CCCCC1)c1ccc2c(c1)N(Cc1ccccc1)C(=O)CS2 | -2.87
80 | COc1cccc(CN2CC(C(=O)N(C)Cc3ccnc4ccccc34)CCC2=O)c1 (stereo not drawn) | 7.39
81 | Cl.NCCNC(=O)c1c(O)c2cccc3c2n(c1=O)CCC3 | 8.67
82 | COC(=O)n1c(SC)nc2ccccc21 | 15.1
83 | COc1ccc(-c2cc(C(=O)NC3CCCC3)no2)cc1OC | 0.758
84 | O=C(CNC(=O)C1CCCCC1)Nc1cc(Cl)cc(Cl)c1 | 14.3
85 | COc1ccc(Nc2nc(C(=O)N3CCc4ccccc4C3)cs2)cc1 | 14.3
86 | O=C(NN1C(=O)C2C3C=CC(O3)C2C1=O)c1cccc(Br)c1 (stereo not drawn) | 22.1
87 | Cc1cc(C(=O)N2CCCC(N3CCN(c4cccc(Cl)c4)CC3)C2)nc(C)n1 (stereo not drawn) | 1.77
